# Laboratory results as given in the supplement of paper PMC4604168 (melanoma cell lines).
# Some of the results follow. Single values are uncertain, as repeats are few or missing.
# Tests used:
# Assay in all cases: cell count relative to DMSO control; melanoma cells; higher = more viable cells
# Conditions in all cases: library dose: standard library concentration; 72 h
# SkMel30 = tested on: SkMel30
# SkMel5 = tested on: SkMel5
# UACC257 = tested on: UACC257
# UACC62 = tested on: UACC62
# WM115 = tested on: WM115
# WM1716 = tested on: WM1716
# WM1745 = tested on: WM1745
# WM3526 = tested on: WM3526
# WM3619 = tested on: WM3619
# WM451Lu = tested on: WM451Lu
# 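Further: cells treated in 1,536-well plates, then fixed and DAPI-stained, with nuclei counted from automated high-throughput microscope images.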
Compound,cell count (SkMel30),cell count (SkMel5),cell count (UACC257),cell count (UACC62),cell count (WM115),cell count (WM1716),cell count (WM1745),cell count (WM3526),cell count (WM3619),cell count (WM451Lu)
"COC(=O)c1sccc1S(=O)(=O)Nc1ccc(Nc2ccccc2)cc1OC + O=S(=O)(c1ccccc1)N(CC(F)(F)F)c1ccc(C(O)(C(F)(F)F)C(F)(F)F)cc1 [T0901317] (first compound 5 µM, partner dose 7 µM)",77.3%,61.6%,72.2%,77.6%,89.1%,78.8%,78.4%,65.1%,72.8%,82.6%
"O=S(=O)(c1ccccc1)N(CC(F)(F)F)c1ccc(C(O)(C(F)(F)F)C(F)(F)F)cc1 + c1cc(-c2cnn3cc(-c4ccc(OCCN5CCCCC5)cc4)cnc23)ccn1 [Dorsomorphin] (first compound 7 µM, partner dose 2 µM)",78%,50.2%,51.8%,47%,43.1%,72.9%,48.5%,77.4%,62.6%,65.3%
"COc1ccc(COc2ccc(Cc3cnc(N)nc3N)cc2OC)cc1 + O=C1NC(=O)/C(=C/c2ccc(-c3ccc(F)cc3O)o2)S1 [AS252424] (first compound 5 µM, partner dose 5 µM)",112%,91.6%,103%,108%,93.2%,109%,97.2%,92%,78.8%,106%
"O=S(=O)(c1ccccc1)N(CC(F)(F)F)c1ccc(C(O)(C(F)(F)F)C(F)(F)F)cc1 + Oc1cc(-c2nc(-c3ccccc3)[nH]c2-c2ccncc2)ccc1Cl [L779450] (first compound 7 µM, partner dose 1 µM)",81.9%,71.5%,79.3%,48.7%,37.6%,73.7%,58.6%,55.5%,71.9%,49.7%
"COc1ccc(COc2ccc(Cc3cnc(N)nc3N)cc2OC)cc1 + COc1cc2ncnc(Nc3ccc(Oc4ccccc4)cc3)c2cc1OC [SrcI1] (first compound 5 µM, partner dose 10 µM)",105%,52.7%,79%,78.1%,74.6%,77.5%,61.6%,66.3%,75.1%,93.3%
"COc1ccc2c(c1)CCC1C2CCC2(C)C(NCCCCCCN3C(=O)C=CC3=O)CCC12 (stereo not given) + CCCCCCCCCCCC1=C(O)C(=O)C=C(O)C1=O [Embelin] (first compound 2 µM, partner dose 6 µM)",101%,81.5%,87.7%,99.2%,77.3%,88.1%,83.6%,89.5%,68.2%,117%
"COC(=O)c1sccc1S(=O)(=O)Nc1ccc(Nc2ccccc2)cc1OC + Cn1cc(/C=C2\C(=O)Nc3cccnc32)c2ccccc21 [GW441756] (first compound 5 µM, partner dose 2 µM)",87.3%,61.9%,71.7%,101%,104%,113%,67.6%,75.9%,62.3%,107%
"CCN(CC)CCCCNc1ncc2cc(-c3cc(OC)cc(OC)c3)c(NC(=O)NC(C)(C)C)nc2n1 + c1cc(-c2cnn3cc(-c4ccc(OCCN5CCCCC5)cc4)cnc23)ccn1 [Dorsomorphin] (first compound 0.5 µM, partner dose 2 µM)",83.7%,73%,94%,113%,72.8%,85.6%,58.2%,91.1%,74.6%,71.4%
"CCN(CC)CCCCNc1ncc2cc(-c3cc(OC)cc(OC)c3)c(NC(=O)NC(C)(C)C)nc2n1 + Oc1cc(-c2nc(-c3ccccc3)[nH]c2-c2ccncc2)ccc1Cl [L779450] (first compound 0.5 µM, partner dose 1 µM)",94.3%,71.5%,95.6%,61.3%,54.3%,63.5%,50.6%,55.2%,75.6%,69.5%
"O=C(O)C(=O)Nc1sc2c(c1C(=O)O)CCNC2 + O=c1cc(-c2cccc3c2Sc2ccccc2S3)oc(N2CCOCC2)c1 [KU55933] (first compound 8.33333 µM, partner dose 5 µM)",123%,82.9%,93.9%,155%,108%,91.9%,86.3%,90.1%,110%,93%
"CCCCCCCCCCCC1=C(O)C(=O)C=C(O)C1=O [Embelin] + CC(C)CCN1c2nc(Nc3cc(F)c(O)c(F)c3)ncc2N(C)C(=O)C1C [BID1870] (first compound 6 µM, partner dose 1 µM)",83.6%,87.9%,71.3%,84%,111%,97.9%,88.3%,65.9%,76.6%,86.4%
"CCN(CC)CCCCNc1ncc2cc(-c3cc(OC)cc(OC)c3)c(NC(=O)NC(C)(C)C)nc2n1 + CCCCCCCCCCCC1=C(O)C(=O)C=C(O)C1=O [Embelin] (first compound 0.5 µM, partner dose 6 µM)",97.7%,112%,90.7%,91.6%,116%,89.2%,89.8%,78.1%,101%,77.2%
"COC(=O)c1sccc1S(=O)(=O)Nc1ccc(Nc2ccccc2)cc1OC + COc1ccc2c(c1)CCC1C2CCC2(C)C(NCCCCCCN3C(=O)C=CC3=O)CCC12 [U73122] (first compound 5 µM, partner dose 2 µM)",83.8%,86.1%,99.7%,59.4%,78.2%,76.4%,85.9%,95.2%,79.6%,116%
"COc1ccc(COc2ccc(Cc3cnc(N)nc3N)cc2OC)cc1 + O=C(O)C(=O)Nc1sc2c(c1C(=O)O)CCNC2 [TCS401] (first compound 5 µM, partner dose 8.33333 µM)",103%,65.4%,72.1%,74.6%,87.2%,82.8%,72.8%,71.9%,76.1%,80.5%
"COc1cc2ncnc(Nc3ccc(Oc4ccccc4)cc3)c2cc1OC + Cc1cc([N+](=O)[O-])ccc1NS(=O)(=O)c1cc(Cl)ccc1Cl [FH535] (first compound 10 µM, partner dose 5 µM)",78.2%,39.2%,56.9%,80.9%,60.3%,55.7%,50.2%,46.2%,50.7%,64.2%
"CCN(CC)CCCCNc1ncc2cc(-c3cc(OC)cc(OC)c3)c(NC(=O)NC(C)(C)C)nc2n1 + Cn1cc(/C=C2\C(=O)Nc3cccnc32)c2ccccc21 [GW441756] (first compound 0.5 µM, partner dose 2 µM)",75.3%,53.5%,84.7%,71.1%,90.4%,92.4%,60.2%,89.6%,65.2%,106%
"COc1ccc2c(c1)CCC1C2CCC2(C)C(NCCCCCCN3C(=O)C=CC3=O)CCC12 (stereo not given) + COc1ccc(-c2ccc3c(N4CCOCC4)nc(N4C[C@@H](C)O[C@@H](C)C4)nc3n2)cc1CO [KU0063794] (first compound 2 µM, partner dose 0.1 µM)",60.4%,59.3%,86.1%,75.6%,72%,86.5%,68.9%,85.6%,54%,78.5%
"O=S(=O)(c1ccccc1)N(CC(F)(F)F)c1ccc(C(O)(C(F)(F)F)C(F)(F)F)cc1 + Cn1cc(/C=C2\C(=O)Nc3cccnc32)c2ccccc21 [GW441756] (first compound 7 µM, partner dose 2 µM)",89.3%,67.6%,73.5%,93.1%,110%,85.9%,70.5%,75.6%,76.3%,84.1%
"Oc1nc(-c2ccc(C(F)(F)F)cc2)nc2c1CSCC2 + CC(C)CCN1c2nc(Nc3cc(F)c(O)c(F)c3)ncc2N(C)C(=O)C1C [BID1870] (first compound 10 µM, partner dose 1 µM)",85%,61.4%,69.3%,71.6%,92.9%,63.5%,70.8%,74.2%,85.3%,70%
"COC(=O)c1sccc1S(=O)(=O)Nc1ccc(Nc2ccccc2)cc1OC + O=C(O)C(=O)Nc1sc2c(c1C(=O)O)CCNC2 [TCS401] (first compound 5 µM, partner dose 8.33333 µM)",107%,78.1%,86.8%,98.2%,93.9%,98.5%,74.5%,82.8%,69.8%,78.2%
"CCN(CC)CCCCNc1ncc2cc(-c3cc(OC)cc(OC)c3)c(NC(=O)NC(C)(C)C)nc2n1 + COc1cc2ncnc(Nc3ccc(Oc4ccccc4)cc3)c2cc1OC [SrcI1] (first compound 0.5 µM, partner dose 10 µM)",101%,65.3%,101%,57.6%,73.6%,87.1%,90.8%,69.4%,137%,63.8%
"O=C(O)C(=O)Nc1sc2c(c1C(=O)O)CCNC2 + O=C1NC(=O)/C(=C/c2ccc(-c3ccc(F)cc3O)o2)S1 [AS252424] (first compound 8.33333 µM, partner dose 5 µM)",83.8%,69.9%,88.3%,104%,85.8%,92.1%,63.4%,72.2%,90.2%,96.9%
"O=C1NC(=O)/C(=C/c2ccc(-c3ccc(F)cc3O)o2)S1 + Cn1cc(/C=C2\C(=O)Nc3cccnc32)c2ccccc21 [GW441756] (first compound 5 µM, partner dose 2 µM)",112%,73.8%,76.8%,101%,89.4%,104%,75.8%,78.4%,93.6%,107%
"COc1ccc(-c2ccc3c(N4CCOCC4)nc(N4C[C@@H](C)O[C@@H](C)C4)nc3n2)cc1CO + O=C(O)C(=O)Nc1sc2c(c1C(=O)O)CCNC2 [TCS401] (first compound 0.1 µM, partner dose 8.33333 µM)",68.4%,61%,80.5%,80.6%,85%,82.1%,71.3%,77.4%,67%,70.6%
